Results reported in PubChem BioAssay AID2060619 (Molecular Pharmacology Branch, DTP, NCI, 2025).
A number of entries come with more than one value. The other results are left out here. There may be further records. Results that share an entry are repeated measurements in other runs, samples, wells, individuals or studies. Brackets with × give the number of equal values in this list.

System: 323965-272-R-J2-PDC complex spheroid viability
Test: Anticancer human tumor 323965-272-R-J2-PDC patient-derived pancreatic carcinoma cell line growth inhibition [CLK]
Settings: for viability, T/C: stronger effect = lower value
Source text: A high-throughput screen of multi-cell type tumor spheroids was designed to identify active combinations of […] and targeted small molecules. Complex spheroids include a stromal component modeled by human endothelial cells (HUVEC) and fibroblasts modeled by human mesenchymal stem cells (MSCs). The concentration ranges selected for each drug and investigational agent were based upon clinically achievable concentrations if the clinical Cmax of the agent was known.
Compounds. The drugs and investigational agents: cirtuvivint (SM08502; NSC835563), CC-671 (NSC850746), vemurafenib (NSC761431), tapotoclax (NSC804041), sotorasib (NSC818433), adagrasib (NSC831453), MRTX-1133 (NSC836407), BAY2416964 (NSC825713), copanlisib (NSC816437), inavolisib (NSC800729), abemaciclib (NSC768073), osimertinib (NSC779217), entinostat (NSC756642), eltanexor (KPT-8602, NSC794443), venetoclax (NSC766270), ceralasertib (NSC777638), bortezomib (NSC756655), olaparib (NSC753686), talazoparib (NSC767125), alisertib (NSC759677), peposertib (NSC802822), gemcitabine (NSC613327), 5-fluorouracil (NSC19893), SN-38 (NSC673596), oxaliplatin (NSC266046), paclitaxel (NSC125973), and doxorubicin (NSC123127), were obtained from the National Cancer Institute (NCI) Developmental Therapeutics Program Chemical Repository. The FDA-approved anticancer drug set is available from the Developmental Therapeutics Program at https://dtp.cancer.gov/organization/dscb/obtaining/available plates.htm. […] The stock solutions were prepared in dimethyl sulfoxide (DMSO, Sigma-Aldrich, St. Louis, MO, cat. D2650), except for the platinum complexes which were prepared in saline (Quality Biological, Gaithersburg, MD, cat. 114-055-101), at 800-fold the tested concentration and stored at -70 degrees C prior to their use. All drugs and investigational agents were tested over a range starting from a high concentration at or near the clinical Cmax and decreasing in half-log increments. If the clinical Cmax for an agent had not been determined, the highest concentration tested was 10 microM.
Cell Culture. […]
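Further: spheroids exposed to agents for seven days before readout.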
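Wherever viability, T/C is given: percent of DMSO vehicle control wells so 100% = untreated growth.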

Structure (SMILES) | viability, T/C (compound alone 0.0316 µM) | IC50 (drug combinations, compound alone, run of 08/15/2023) | viability, T/C (compound alone 10 µM)
CNC(=O)c1ccc(Nc2nc(OC3CCCC3)c3c(-c4ccc5nc(C)oc5c4)c[nH]c3n2)c(OC)c1 | 115, 102, 96.2, 126, 96.3 (2×), 103, 113, 87.4, 101, 111, 104% | 812 nM, 828 nM, 1.47 µM, 987 nM, 2.27 µM, 1.24 µM, 2.13 µM, 1.59 µM, 613 nM, 2.88 µM, 959 nM, 893 nM | 
C=C(F)C(=O)N1CCN(c2nc(OCC3CCCN3C)nc3c2CCN(c2cccc4cccc(Cl)c24)C3)CC1CC#N (stereo not drawn) |  |  | 40.6% and 9.86%
